Results: PubChem BioAssay AID686970 (National Center for Advancing Translational Sciences (NCATS), 2013)
Out of some 360,000 compounds screened, about 6,000 (1.7%) were called active. Inconclusive means that the source gave no clear call. Such entries were picked first, then a sample of the others. Calls come from the whole dose curve; as a rule, active = well fitted cell-killing curve with a large enough effect; inconclusive = small, poorly fitted or top-dose-only effect, or effect the other way; inactive = flat fitted curve, though single readings scatter. Potencies of inconclusive entries are left out as doubtful fits.
Potency is the fitted concentration of half-maximal effect; tags give direction and shape of the fitted curve.

Experiment: qHTS for induction of synthetic lethality in tumor cells producing 2HG: qHTS for the HT-1080-NT fibrosarcoma cell line;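 note: NT is the 2HG producing partner of a matched IDH1 knockdown line; nearly all actives have a fitted effect of over 55% in size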;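 for activity, negative = less viability: 0% = DMSO-treated cells and -100% = media-only wells without cells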
Details: HT-1080-NT fibrosarcoma viability, CellTiter-Glo ATP luminescence, 48 h; activity, negative = less viability: at 46.1 µM (top of the series) unless noted
How it was run: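 Viability by CellTiter-Glo luminescence after 48 h compound exposure at 37C of HT-1080-NT cells (750/well, RPMI, 5% FBS). % activity scaled between DMSO wells and medium-only wells, then curve-fitted and categorized by curve class.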
With CCCNC1=C(N(C(C)=O)c2cccc(F)c2)C(=O)c2ccccc2C1=O the Potency was active: 8.2 µM.
With Cc1ccc(N=c2ssnc2Cl)cc1 the Potency was inconclusive [cytotoxic, single point].
For CCOCCN1CCN(c2c(C)c(C)nc3cc(-c4cc(OC)cc(OC)c4)nn23)CC1, the Potency was inconclusive [cytotoxic, single point].
With C[C@H](CO)N1C[C@H](C)[C@H](CN(C)S(=O)(=O)c2cn(C)cn2)Oc2ccc(NC(=O)Nc3ccc(C(F)(F)F)cc3)cc2CC1=O the Potency was active: 5.17 µM.
In the case of CC(NS(=O)(=O)c1ccccc1)C(c1cccs1)N1CCN(c2ccccc2)CC1 (centres undefined), the Potency is reported as inconclusive [cytotoxic, single point].
With CCOC(=O)c1[nH]c(C)c(C(=O)c2cc(F)ccc2F)c1C the Potency was active: 0.708 µM.
In the case of COc1ccc(C(=O)Nc2cc(-c3ccc(C)cc3)no2)cc1, the Potency is reported as inconclusive [cytotoxic, single point].
For COc1ccccc1-c1nnc(NC(=O)c2ccc(S(=O)(=O)N3CCCC3)cc2)o1, the Potency was inconclusive [cytotoxic, partial curve].
In the case of CCCc1nc2ccccc2n1C(C(=O)NC(C)(C)C)C1CC1 (centres undefined), the Potency is reported as “inactive”.
In the case of CC(Oc1ccc(F)cc1)C(=O)Nc1nc(-c2ccccn2)cs1 (centres undefined), the Potency is reported as inconclusive [cytotoxic, single point].
In the case of CC1(C(=O)NS(=O)(=O)c2cccc(C#N)c2)CCN1C(=O)C1(c2ccccc2)CC1 (centres undefined), the Potency is reported as “inactive”.
In the case of COCCCNC(=O)C[C@@H]1C[C@@]2(C(=O)OC)CCCCC=C2N(CCc2ccc(OC)c(OC)c2)C1=O, the Potency is reported as “inactive”.
With Cn1c(=O)c2cc(NC(=O)NCc3ccccc3)ccc2n1C/C=C/c1ccccc1 the Potency was active: 8.2 µM.
In the case of COc1cccc(C(=O)Nc2ccc3ccccc3c2)c1, the Potency is reported as “inactive”.
For Cc1ccc2nc(Cl)c(/C=N/NC(=O)CN3CCOCC3)cc2c1, the Potency was “inactive”.
For COc1ccc2[nH]c3nc(SCc4nnc(-c5ccc(C)cc5)o4)nnc3c2c1, the Potency was inconclusive [cytotoxic, single point].
In the case of CCCCC(=O)N(C)c1c(CC)nc2c(OCC=C(C)C)cccn12, the activity, negative = less viability is reported as inconclusive: -32.8% [cytotoxic].
With CCCS(=O)(=O)c1nnnn1-c1cccc(OC)c1 the Potency was active: 10 µM.
With COc1cccc(NC(=O)CN(C)C(=O)c2cc(-c3cccc(Br)c3)nc3ccccc23)c1 the Potency was inconclusive [cytotoxic, single point].
For CC(=O)Nc1cccc(NC(=O)c2cc(-c3cccnc3)nc3ccc(Cl)cc23)c1, the Potency was inconclusive [cytotoxic, partial curve].
In the case of CCOC(=O)C(=Cc1ccc(-n2cncn2)cc1)C(=O)OCC, the Potency is reported as active: 16.4 µM.
For COc1cc(/C=N/NC(=O)c2nnn(-c3nonc3N)c2C(C)C)ccc1OCc1ccccc1, the Potency was inconclusive [cytotoxic, single point].
In the case of CCCCN(C)CCNC(=O)c1cc2c(-c3cccc(OC)c3)nn(C)c2s1, the Potency is reported as active: 18.4 µM.
For CN(C)CCSc1nc(N)c2c3c(sc2n1)COC(C)(C)C3, the Potency was inconclusive [cytotoxic, single point].
For COc1ccccc1C1=NNC(=Nc2cccc(S(=O)(=O)N(C)C)c2)SC1, the Potency was inconclusive [cytotoxic, partial curve].
With COc1ccc(NC(=O)CN(C)C(=O)c2cccc(S(=O)(=O)N3CCN(Cc4ccccc4)CC3)c2)cc1 the Potency was inconclusive [cytotoxic, single point].
In the case of O=C(Nc1ccc2c(c1)CCC2)c1ccc(Br)s1, the Potency is reported as inconclusive [cytotoxic, single point].
With O=C(Nc1ccc(CN2CCS(=O)(=O)CC2)cc1)c1ccc(C(F)(F)F)cc1 the Potency was inconclusive [cytotoxic, partial curve].
In the case of CCOc1ccc(/C=N/NC(=O)c2cc3c(OC)cccc3[nH]2)cc1, the Potency is reported as inconclusive [cytotoxic, partial curve].
For CC(C)Cc1ccc(C(C)/C=C2/CCC(CN3CCCCC3)C2=O)cc1 (centres undefined), the Potency was inconclusive [cytotoxic, single point].
For COc1cc(-c2cc(O)c(-c3ccc4ccccc4n3)c(=O)[nH]2)cc(OC)c1OC, the Potency was inconclusive [cytotoxic, single point].
In the case of O=C(Nc1ccccc1)c1cc2ccccc2o1, the Potency is reported as inconclusive [cytotoxic, partial curve].
With CC1CCN(C(=O)c2ccc(SCc3ccccc3F)c([N+](=O)[O-])c2)CC1 the Potency was inconclusive [cytotoxic, single point].
For COc1ccc(CCSc2nnc(C3CCCCC3)n2N)cc1, the Potency was “inactive”.
With Cc1cc(C(=O)COc2cccnc2[N+](=O)[O-])c(C)n1Cc1ccco1 the Potency was inconclusive [cytotoxic, single point].
In the case of c1ccc(-c2ccc(-c3nc(-c4cccnc4)no3)cc2)cc1, the Potency is reported as “inactive”.
For O=C(COC(=O)c1ccccc1C(=O)c1ccc(Cl)c([N+](=O)[O-])c1)NC1CCCCCC1, the Potency was active: 8.91 µM.
For CCOC(=O)N1CCN(c2c(NCc3cccs3)c(=O)c2=O)CC1, the Potency was inconclusive [cytotoxic, partial curve].
With CCOc1ccc(Cl)cc1-c1cc(C(=O)Nc2cc(OC)c(OC)c(OC)c2)[nH]n1 the Potency was inconclusive [cytotoxic, single point].
In the case of O=C(NCCCN1CCCC1)c1ccc2c(c1)N(Cc1cccc(Cl)c1)C(=O)c1ccccc1S2(=O)=O, the Potency is reported as “inactive”.
For COc1cc(NC(=O)c2cc([N+](=O)[O-])ccc2Br)ccc1NC(=O)c1ccco1, the Potency was inconclusive [cytotoxic, single point].
For CCc1nc2ccc(C(=O)NCCC(C)C)cn2c1N(CC)CCN(C)C, the activity, negative = less viability was inconclusive: -8.62% [cytotoxic].
In the case of CC1(NC(=O)CCc2nc3ccccc3c(=O)[nH]2)CCS(=O)(=O)C1 (centres undefined), the Potency is reported as inconclusive [rising, single point].
In the case of COc1cccc(-c2cc3nc(NCCCN(C)C)n(C)c(=O)c3s2)c1, the Potency is reported as inconclusive [cytotoxic, single point].
